Our source for the GI50 and TGI values is PubChem BioAssay (NCI).

Some test systems named below: CCRF-CEM leukemia; NCI-H226 lung; UACC-257 melanoma; HOP-92 NSCLC; NCI-H23 lung; SR leukemia.
What all share (assay): inhibition of tumour cell growth, NCI panel, 48 h

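Values below derive from 48-hour exposures of cells grown in 96-well plates, with endpoints linearly interpolated between the two concentrations bracketing the appropriate inhibition level. GI50 is the concentration that inhibits growth by half. TGI: total growth inhibition.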

For the compound `NC(=O)CCc1ccccc1Oc1nccc(-c2c(-c3ccc(F)cc3)ncn2C2CCNCC2)n1`, the GI50 with CCRF-CEM leukemia, with NCI-H226 lung, in the test on UACC-257 melanoma, in the test on HOP-92 NSCLC, in the test on NCI-H23 lung and in the test with SR leukemia was above 25 µM in each case. Further, the TGI in the test on CCRF-CEM leukemia, in the test with NCI-H226 lung, in the test with UACC-257 melanoma, in the test with HOP-92 NSCLC, with NCI-H23 lung and with SR leukemia was above 25 µM in each case.
